Assay results published in the BET-seq Pho4 binding data (Le et al. 2018).
The other results are listed elsewhere or left out. These are noisy estimates, calculated here from bound and input reads.

Target: T1, Pho4 (S. cerevisiae) (UniProt P07270)
T1 sequence: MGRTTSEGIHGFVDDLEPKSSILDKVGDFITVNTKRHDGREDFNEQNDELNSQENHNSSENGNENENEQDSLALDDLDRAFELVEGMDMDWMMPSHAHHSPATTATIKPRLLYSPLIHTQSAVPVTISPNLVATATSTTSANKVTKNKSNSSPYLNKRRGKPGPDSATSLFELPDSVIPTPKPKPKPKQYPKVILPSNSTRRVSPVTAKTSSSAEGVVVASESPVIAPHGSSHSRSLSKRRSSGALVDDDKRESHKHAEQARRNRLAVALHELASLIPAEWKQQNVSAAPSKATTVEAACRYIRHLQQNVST
Assay: relative binding free energy (BET-seq); higher = weaker binding
Conditions: reference: library average

Sequence | relative binding free energy [kcal/mol]
TTGCTCACGTGGGACG | 0.18
GGGCACACGTGCATGT | 0.23
ATAAGCACGTGTATAG | -0.11
CTGGGCACGTGGTTGC | -0.14
ATGGCCACGTGTTTGA | -0.06
ACGTTCACGTGTTTGA | 0.24
GAGATCACGTGCGGTT | 0.26
AGAAGCACGTGGATTG | -0.08
TGGAACACGTGATTAG | 0.21
TAAGTCACGTGTTGCT | -0.03
CTTAGCACGTGTGCTG | -0.04
ATGTGCACGTGTCGGC | -0.14
CGTGGCACGTGAAGTT | 0.17
AGTGACACGTGGAGTC | 0.24
GGCGACACGTGGTGGG | -0.07
CGGATCACGTGTGGTA | 0.13
TATGTCACGTGTAGGC | 0.23
TGGTTCACGTGTATAT | 0.21
TTTGACACGTGTCATT | 0
GGCTTCACGTGGTTGA | 0.27
GGGTCCACGTGGGGGA | -0.13
TATAACACGTGAGTTA | 0.24
ATAGTCACGTGGCGTT | -0.03

Sequence | relative binding free energy [kcal/mol]
GGGAACACGTGGATGG | 0.09
GGTTTCACGTGATCTA | 0.45
TGGTTCACGTGGCTGC | 0.22
GGGCGCACGTGGTATT | 0.01
ATGTGCACGTGGAGTC | 0.06
TCGTGCACGTGTTATT | -0.12
TGGTCCACGTGATAGG | 0.05
TTGATCACGTGGCCGG | 0.03
TTTAACACGTGCTTGG | 0.02
GTAGGCACGTGTGGTG | 0.02
AGGGGCACGTGACGCA | -0.02
ATTGTCACGTGGGTTT | -0.05
GGCACCACGTGGGAGG | -0.1
GGCAGCACGTGAGGAG | 0.21
CGGTTCACGTGATGTA | 0.26
TTTTGCACGTGAAGGT | 0.22
TGATTCACGTGTCATT | 0.26
AATGGCACGTGGTAAT | -0.14
TGGCGCACGTGTTATT | -0.11
AGAGTCACGTGTATGC | 0.15
AGGGTCACGTGTGTAT | 0.21
TGTGACACGTGGAGAG | -0.1
GTAAGCACGTGTATAG | -0.09

Sequence | relative binding free energy [kcal/mol]
AGAGGCACGTGGATTG | -0.18
TTCGTCACGTGTAGTA | 0.09
CGGAGCACGTGGTTCG | -0.03
TTTCCCACGTGGTTGT | -0.04
TTTTTCACGTGAGAAG | 0.31
TTAGGCACGTGGTGTC | -0.2
ATTGGCACGTGGGCAT | -0.2
GGATACACGTGTATGA | 0.14
GTCTGCACGTGTGATA | 0.21
CTTCGCACGTGTTTGT | -0.23
GTTTTCACGTGGGTCT | 0.27
GGTCGCACGTGAGGGG | 0.18
TATGACACGTGGGATC | 0.18
GTTTGCACGTGGGGTG | -0.12
CGGGGCACGTGGTTGG | -0.11
TAGGCCACGTGGGAAG | -0.15
CTTTGCACGTGGAATT | 0.16
GTTTGCACGTGGGGTT | -0.02
GTGTGCACGTGTATGC | 0.05
GCGTGCACGTGGGTCG | -0.07
TGAGTCACGTGGATTA | 0.16
TGGGGCACGTGGTAAC | -0.18
GTGTGCACGTGTAACT | 0.18

Sequence | relative binding free energy [kcal/mol]
GGTGTCACGTGCCTTG | 0.06
ATGTGCACGTGCGTAG | -0.22
ACTGTCACGTGGGAGG | -0.08
AGGGTCACGTGTTAAA | 0.09
ATTTGCACGTGGCTGA | -0.13
TTGGCCACGTGATGGG | 0.06
GAGATCACGTGGGGAG | 0.2
GAGTGCACGTGGAGTA | -0.05
TTATACACGTGTTGCT | -0.11
CGGGGCACGTGTGCGG | -0.13
TTTACCACGTGTTGGG | -0.02
TCGGCCACGTGGTGGG | -0.07
ATCTTCACGTGGTTAG | 0.19
GGCTACACGTGGGTGC | -0.06
TTGATCACGTGATGTA | 0.22
TATGGCACGTGATGAT | 0.05
TGCTGCACGTGGGATA | -0.21
TGGTTCACGTGTGTGG | 0.33
CGGGGCACGTGAATTT | 0.29
TAAGTCACGTGGTTGG | 0.04
CAGAGCACGTGGTGGT | -0.31
TTATTCACGTGTCATT | 0.24
CTGAACACGTGGGTTT | -0.1

Sequence | relative binding free energy [kcal/mol]
TGAGGCACGTGAGAGA | 0.09
ATCATCACGTGTGTGA | 0.15
ATGAGCACGTGTCGAG | -0.13
TGGGGCACGTGTGCTA | -0.04
TTATTCACGTGACGTG | 0.19
TGGTGCACGTGTAGCG | 0.1
GGAGCCACGTGTGTAT | 0.02
TCCAGCACGTGTGGGT | -0.11
ATAGGCACGTGGTAGG | -0.15
TGGAACACGTGGGGAC | -0.07
TCTATCACGTGGTGGG | 0.15
TCAGGCACGTGTTTTG | -0.04
TTTGTCACGTGTTGTT | 0.13
GTCGGCACGTGGAGTT | 0.13
GTGTGCACGTGTTAGG | 0.01
GGTGACACGTGGTCGC | -0.08
TGGTGCACGTGAAGGA | 0.11
AAGGTCACGTGTTGGT | 0.16
TGGTGCACGTGGATTG | 0.03
TACAGCACGTGTTTGT | 0.01
CAGTGCACGTGTTGGC | 0.05
TGAATCACGTGAGGCT | 0.26
TATGTCACGTGTCAGT | 0.15
